# Reference: the supplement of paper PMC8728848
# This is one part of the list.
# B1: PA-IL (Pseudomonas aeruginosa), Q05097 (protein)
# chain: MAWKGEVLANNEAGQVTSIIYNPGDVITIVAAGWASYGPTQKWGPQGDREHPDQGLICHDAFCGALVMKIGNSGTIPVNTGLFRWVAPNNVQGAITLIYNDVPGTYGNNSGSFSVNIGKDQS
# Assays:
# Assay in all cases: glycan array binding signal (z-score within array); higher = stronger binding
# Details in all cases: glycan notation: IUPAC condensed, linker removed
# [1] = molecular target: Neu5Ac(a2-8)Neu5Ac(a2-8)Neu5Ac
# Summary of the method: (§1)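 Arrays were curated from the Consortium for Functional Glycomics database, 3228 in total, and kept only where the protein sequence was available. Binding is expressed as a within-array Z-score. This score was averaged across arrays of the same protein sequence at different concentrations or buffers and across linkers, and negative values can be read as non-binding.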
# [2] = molecular target: Neu5Ac(a2-8)Neu5Ac(a2-8)Neu5Ac(a2-3)Gal(b1-4)Glc
# Summary of the method: as §1
# [3] = molecular target: Neu5Ac(a2-8)Neu5Ac(a2-8)Neu5Ac(a2-3)[Gal(b1-3)GalNAc(b1-4)]Gal(b1-4)Glc
# Summary of the method: as §1
# [4] = molecular target: Neu5Ac(a2-8)Neu5Ac(a2-8)Neu5Ac(a2-3)[GalNAc(b1-4)]Gal(b1-4)Glc
# Summary of the method: as §1
# [5] = molecular target: Neu5Ac(a2-8)Neu5Ac(a2-8)Neu5Ac(a2-8)Neu5Ac(a2-3)[GalNAc(b1-4)]Gal(b1-4)Glc
# Summary of the method: as §1
# [6] = molecular target: Neu5Ac(a2-8)Neu5Gc(a2-3)Gal(b1-4)GlcNAc
# Summary of the method: as §1
# [7] = molecular target: Neu5Ac(b2-6)Gal(b1-4)GlcNAc
# Summary of the method: as §1
# Neu5Ac(b2-6)GalNAc = molecular target: Neu5Ac(b2-6)GalNAc
# Summary of the method: as §1
# [8] = molecular target: Neu5Ac9Ac(a2-3)Gal(b1-3)GlcNAc
# Summary of the method: as §1
# [9] = molecular target: Neu5Ac9Ac(a2-3)Gal(b1-4)GlcNAc
# Summary of the method: as §1
# [10] = molecular target: Neu5Ac9Ac(a2-6)Gal(b1-4)GlcNAc
# Summary of the method: as §1
# [11] = molecular target: Neu5Gc(a2-3)Gal(b1-3)GlcNAc
# Summary of the method: as §1
# [12] = molecular target: Neu5Gc(a2-3)Gal(b1-3)[Fuc(a1-4)]GlcNAc
# Summary of the method: as §1
# Neu5Gc(a2-3)Gal(b1-4)Glc = molecular target: Neu5Gc(a2-3)Gal(b1-4)Glc
# Summary of the method: as §1
# [13] = molecular target: Neu5Gc(a2-3)Gal(b1-4)GlcNAc
# Summary of the method: as §1
# [14] = molecular target: Neu5Gc(a2-3)Gal(b1-4)GlcNAc(b1-3)Gal(b1-4)GlcNAc(b1-2)Man(a1-3)[Neu5Gc(a2-3)Gal(b1-4)GlcNAc(b1-3)Gal(b1-4)GlcNAc(b1-2)Man(a1-6)]Man(b1-4)GlcNAc(b1-4)GlcNAc
# Summary of the method: as §1
# [15] = molecular target: Neu5Gc(a2-3)Gal(b1-4)[Fuc(a1-3)]GlcNAc
# Summary of the method: as §1
# [16] = molecular target: Neu5Gc(a2-6)Gal(b1-4)GlcNAc
# Summary of the method: as §1
# Neu5Gc(a2-6)GalNAc = molecular target: Neu5Gc(a2-6)GalNAc
# Summary of the method: as §1
# [17] = molecular target: Neu5Gc(a2-8)Neu5Ac(a2-3)Gal(b1-4)GlcNAc
# Summary of the method: as §1
# [18] = molecular target: Neu5Gc(a2-8)Neu5Gc(a2-3)Gal(b1-4)GlcNAc
# Summary of the method: as §1
# [19] = molecular target: Neu5Gc(a2-8)Neu5Gc(a2-3)Gal(b1-4)GlcNAc(b1-3)Gal(b1-4)GlcNAc
# Summary of the method: as §1
# [20] = molecular target: Neu5Gc(a2-8)Neu5Gc(a2-6)Gal(b1-4)GlcNAc
# Summary of the method: as §1
# [21] = molecular target: Neu5Gc(b2-6)Gal(b1-4)GlcNAc
# Summary of the method: as §1
binder,measurement,setting,value
B1,glycan array binding signal (z-score),[1],-0.235
same,glycan array binding signal (z-score),[2],-0.218
same,glycan array binding signal (z-score),[3],-0.189
same,glycan array binding signal (z-score),[4],-0.19
same,glycan array binding signal (z-score),[5],-0.214
same,glycan array binding signal (z-score),[6],-0.224
same,glycan array binding signal (z-score),[7],-0.237
same,glycan array binding signal (z-score),Neu5Ac(b2-6)GalNAc,-0.224
same,glycan array binding signal (z-score),[8],-0.233
same,glycan array binding signal (z-score),[9],-0.205
same,glycan array binding signal (z-score),[10],-0.222
same,glycan array binding signal (z-score),[11],-0.231
same,glycan array binding signal (z-score),[12],-0.214
same,glycan array binding signal (z-score),Neu5Gc(a2-3)Gal(b1-4)Glc,-0.208
same,glycan array binding signal (z-score),[13],-0.236
same,glycan array binding signal (z-score),[14],-0.227
same,glycan array binding signal (z-score),[15],-0.228
same,glycan array binding signal (z-score),[16],-0.212
same,glycan array binding signal (z-score),Neu5Gc(a2-6)GalNAc,-0.224
same,glycan array binding signal (z-score),[17],-0.245
same,glycan array binding signal (z-score),[18],-0.238
same,glycan array binding signal (z-score),[19],-0.244
same,glycan array binding signal (z-score),[20],-0.237
same,glycan array binding signal (z-score),[21],-0.226
